# Measurements reported in PubChem BioAssay AID504466 (National Center for Advancing Translational Sciences (NCATS), 2011).
# The whole screen tested about 330,000 compounds, of which about 4,200 (1.3%) were called active. The inconclusive results got no clear call from the source; some entries with a clear call stand among them for comparison. Calls follow the shape of the dose curve; as a rule, active = well fitted activation curve with a large enough effect; inconclusive = small, poorly fitted or top-dose-only effect; inactive = no such curve, though single readings can be large or run the other way. Where the call is inconclusive, the potency comes from a doubtful curve fit.
# Experiment: qHTS screen for small molecules that induce genotoxicity in human embryonic kidney (HEK293T) cells expressing luciferase-tagged ELG1; also: nearly all actives have a fitted effect of over 60% in size; as to activity change, positive = activation: % of control where 0% means no effect
# Conditions: HEK293T ELG1-luciferase reporter, luminescence, 16 h; series mostly up to 46 µM; activity change, positive = activation: at the top concentration
# Method in brief: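 Reporter readout depends on ELG1 protein level, which increases with genetic stress. After 16 hr compound exposure at 37 °C, luciferase activity was quantified using ONE-Glo.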
# Potency is read from the fitted curve at half-maximal effect; tags tell the direction and shape of the fitted curve.
Compound,Potency,"activity change, positive = activation"
Cc1cc(C)nc(-n2nc(C)c(Sc3ccc(F)cc3)c2N)n1,"inconclusive: 5.8 µM [activator, partial curve]",
Cc1cnc(C(=O)Nc2nnc(C(C)C)s2)cn1,active: 9.2 µM,
COC(=O)c1cc(S(=O)(=O)NCCN2CCN(c3ccccc3F)CC2)c[nH]1,,inactive: -0.314% [at 9.26 µM]
Cc1c(C(=O)N/N=C/c2ccc(N(C)C)cc2)[nH]c2ccc(Cl)cc12,"inconclusive: 23.1 µM [activator, partial curve, poor fit]",
Cn1c(=Nc2ccccc2)sc2ccccc21,"inconclusive: 20.6 µM [activator, partial curve]",
CC(C)c1ccc(C(=O)Nc2nnc(S(=O)(=O)N3CCOCC3)s2)cc1,,inactive: -1.64%
O=c1[nH]c2ccccc2c2cn(-c3ccccc3)nc12,"inconclusive: 4.61 µM [activator, full curve]",
C/C=C(\C)c1nnc(NC(=O)OCC)s1,"inconclusive: 29.1 µM [activator, single point]",
N/C(=N\OC(=O)COc1ccc(Br)cc1Cl)c1cccnc1,"inconclusive: 10.3 µM [activator, partial curve]",
COCCCN=C1NN=C(c2cc(C)n(Cc3ccco3)c2C)CS1,active: 3.26 µM,
Cc1ccccc1NC(=O)c1ccc2ccccc2c1,"inconclusive: 23.1 µM [activator, partial curve]",
CCc1ccc(NC(=O)c2ccc3nc(N)sc3c2)cc1,"inconclusive: 20.6 µM [activator, partial curve]",
Oc1ccc(C2=NNC(c3ccc(O)cc3)=NN2)cc1,,inactive: 3.14%
COc1ccc(C2C3=C(CCCC3=O)Nc3nc(-c4cc(OC)c(OC)c(OC)c4)nn32)cc1OC (stereo not drawn),active: 20.6 µM,
O=C(N[C@@H]1C/C=C\C[C@@H](CC(=O)N(CCO)Cc2ccccc2)C(=O)N[C@H](Cc2ccccc2)COC1=O)OCC1c2ccccc2-c2ccccc21,,inactive: -0.759%
Nc1c(C(=O)CSc2nnc(-c3ccccc3)o2)c(=O)[nH]c(=O)n1C1CC1,"inconclusive: 23.1 µM [activator, partial curve, poor fit]",
NS(=O)(=O)c1ccc2nc(NC(=O)Nc3ccccc3F)sc2c1,active: 3.26 µM,
CNC(=O)[C@@H]1C[C@H]1[C@@H](NC(=O)OCc1ccccc1)c1ccccc1,"inconclusive: 18.4 µM [activator, single point]",
Cc1occc1C(=O)Nc1ccc(Br)cc1F,"inconclusive: 10.3 µM [activator, partial curve, poor fit]",
CCCn1c(NC(=O)c2ccc(C)cc2)nc2ccccc21,"inconclusive: 18.4 µM [activator, single point]",
COc1ccc(/C=C2\CC/C(=C\c3ccc(OC)cc3OC)C2=O)c(OC)c1,"inconclusive: 29.1 µM [activator, single point]",
Fc1ccccc1-c1cc2ncccc2cn1,"inconclusive: 11.6 µM [activator, partial curve, poor fit]",
Cc1ccc2oc(C(=O)Nc3nonc3C)c(C)c2c1,"inconclusive: 20.6 µM [activator, single point]",
CCc1cc2cc(C(=O)Nc3ccccc3F)sc2s1,active: 1.16 µM,
CSc1ccc(/C=C/C(=O)c2ccc(NC(=O)C(C)C)cc2)cc1,,inactive: -2.45%

Compound,Potency,"activity change, positive = activation"
O=C(Cc1ccccc1)Nc1ccc(N2CCOCC2)cc1,"inconclusive: 16.4 µM [activator, partial curve, poor fit]",
O=C(OCc1ccccc1)/C(=C/c1cccc2ccccc12)NC(=O)c1ccccc1,,inactive: 3.22%
CSc1ccccc1-c1nc(-c2ccncc2)no1,"inconclusive: 14.6 µM [activator, partial curve, poor fit]",
COc1ccc(S(=O)(=O)N[C@@H](C)C(=O)OCC(=O)Nc2cc3oc4ccccc4c3cc2OC)cc1,"inconclusive: 29.1 µM [activator, partial curve, poor fit]",
O=[N+]([O-])c1ccc(Cl)c(S(=O)(=O)Nc2ccc(-c3ccc(N4CCOCC4)nn3)cc2)c1,,inactive: 5.51%
O=S(=O)(NC1CCCCC1)c1ccc(N2CCOCC2)nc1,,inactive: -1%
O=C(O)c1cccc(N/N=C/c2cccc3ccccc23)c1,"inconclusive: 0.164 µM [activator, full curve, poor fit]",
CC(=C/C(=O)O)/C=C/c1ccco1,"inconclusive: 25.9 µM [activator, partial curve, poor fit]",
CC(=O)N(/N=C1\Sc2ccccc2C1=O)c1cccc(C)c1,"inconclusive: 9.2 µM [activator, partial curve]",
CCCCCCCC(=O)Oc1ccc(C(=O)Nc2cc(C)on2)cc1,"inconclusive: 18.3 µM [activator, partial curve, poor fit]",
CCOc1ccc(/C=N/N(C)c2ccccc2)cc1OC,active: 4.61 µM,
O=C(COC(=O)c1c(F)cccc1Cl)NC1CCCCC1,"inconclusive: 16.4 µM [activator, partial curve, poor fit]",
Cc1c(C)n(C)c2ccc(C(=O)NCCc3ccco3)cc12,"inconclusive: 32.6 µM [activator, partial curve, poor fit]",
O=C(Nc1ccc(Cl)cc1[N+](=O)[O-])c1ccc2c(c1)OCCO2,active: 4.11 µM,
OCCNCc1cc(Br)ccc1OCc1ccc(Cl)cc1Cl,,inactive: -0.817%
CCCN=CC1=C(O)CC(c2ccccc2)CC1=O (stereo not drawn),,inactive: 0.198%
COC(=O)c1[nH]c2ccccc2c1NC(=O)CN1CCC(C(N)=O)(N2CCCCC2)CC1,,inactive: -1.83%
Cc1c(Cl)cccc1NC(=O)Cn1c(CCC(=O)O)ccc1-c1ccc(Cl)cc1,,inactive: -6.26%
CC(C)(C)C(=O)Nc1nnc(SCc2ccc(F)cc2)s1,"inconclusive: 18.4 µM [activator, single point]",
COc1ccc(N2Cc3ccc(OC)c(OC)c3C2=O)cc1,active: 10.3 µM,
CCCOc1ccc(C2=CSC3=NCCN23)cc1[N+](=O)[O-],,inactive: 1.47%
O=C(Nc1ccc2c(c1)CCC2)c1c(F)cccc1Cl,active: 9.2 µM,
COc1ccc2nc(/C=N/NC(=O)[C@H](C)NC(=O)OC(C)(C)C)ccc2c1,"inconclusive: 25.9 µM [activator, partial curve, poor fit]",
O=C(Nc1ncc(C(F)(F)F)cc1Cl)C1COc2ccccc2O1 (stereo not drawn),"inconclusive: 23.1 µM [activator, partial curve, poor fit]",
CC(C)(C)c1ccc(-c2nnc(N)s2)cc1,"inconclusive: 7.3 µM [activator, partial curve]",

Compound,Potency,"activity change, positive = activation"
Cc1ccc(N2C(=O)c3ccccc3C2O)nc1 (stereo not drawn),"inconclusive: 0.517 µM [activator, full curve]",
Cc1ccccc1NC(=O)CSc1nc2scc(C)c2c(=O)[nH]1,"inconclusive: 23.1 µM [activator, single point]",
Cc1cc(C)cc(-n2nnn(C3C/C(=N/NC(N)=S)C4OCC3O4)c2=S)c1 (stereo not drawn),"inconclusive: 1.16 µM [activator, single point]",
CC(=O)NCCc1nc2cc(NC(=O)c3ccccc3)ccc2n1C,"inconclusive: 20.6 µM [activator, single point]",
Cc1ccc(Nc2nc3ccccc3o2)cc1F,active: 5.8 µM,
O=c1oc(-c2ccc(Br)cc2)nc2ccccc12,"inconclusive: 6.51 µM [activator, partial curve, poor fit]",
Cc1nnc2c(-c3ccccc3)nc3ccccc3n12,"inconclusive: 23.1 µM [activator, single point]",
CCc1ccc(C(=O)NNc2ccc(C)c(Cl)c2)cc1,,inactive: 9.5%
Cc1ccc(NC(=O)c2ccc([N+](=O)[O-])cc2Cl)nc1,"inconclusive: 9.2 µM [activator, partial curve]",
Cc1cccc(-n2c(C)cc(/C=N\NC(=O)c3ccco3)c2C)c1,"inconclusive: 5.8 µM [activator, partial curve, poor fit]",
COCCn1c(/C=C/c2ccccc2)nc2ccccc21,"inconclusive: 2.06 µM [activator, full curve]",
Cc1ccc2nc(SCC(=O)NCc3ccco3)c(C#N)cc2c1,"inconclusive: 11.6 µM [activator, partial curve]",
COc1ccc(CC(=O)O/N=C(\N)c2ccncc2)cc1,,inactive: -2.02%
O=C(Nc1cc2ccccc2oc1=O)C1CCCCC1,"inconclusive: 4.11 µM [activator, full curve, poor fit]",
C/C(=N\NC(=O)c1cccc2ccccc12)c1cccs1,"inconclusive: 20.6 µM [activator, single point]",
COC(=O)c1sccc1NC(=O)COc1ccc(F)cc1Cl,"inconclusive: 20.6 µM [activator, partial curve]",
N/C(=N\OC(=O)c1cc(Br)ccc1Cl)c1cccnc1,,inactive: 12%
CC(C)C[C@H](NC(=O)OC(C)(C)C)C(=O)N/N=C/C1=Cc2ccccc2OC1C (stereo partly drawn),,inactive: -8.45%
O=c1c2ccccc2nnn1CSc1ccccc1F,"inconclusive: 2.91 µM [activator, full curve]",
Cc1ccccc1C(=O)N1CCN(c2ccc(N3CCOCC3)nn2)CC1,,inactive: -1.56%
O=c1cc(NS(=O)(=O)c2ccccc2)nc(SCc2ccc(Cl)cc2)[nH]1,active: 23.1 µM,
c1cncc(-c2nc3ccccn3c2Nc2ccc3c(c2)OCCO3)c1,"inconclusive: 16.4 µM [activator, partial curve, poor fit]",
N/C(=N\OC(=O)C12CC3CC(CC(C3)C1)C2)c1ccccn1,"inconclusive: 14.6 µM [activator, partial curve, poor fit]",
